The IC50 comes from the fitted curve, where viability falls to half of the control; fits outside the tested doses are given as limits. For AUC the same curve is integrated over the 256-fold range of doses and scaled to a fraction: 1 means no effect, lower means more sensitive. For part of these data: An inferred top dose was derived from the fitted curves, not read from the paper.
Key:
Experiment in all cases: Viability of human cancer cell lines after 72 h of drug (GDSC screen)
ZG-10 = compound: CN(C)C/C=C/C(=O)Nc1ccc(C(=O)Nc2cccc(Nc3nccc(-c4cccnc4)n3)c2)cc1 [ZG-10]; conditions: top dose 10 µM; top dose inferred
Protocol: (§1)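 Human cancer cell lines in 384-well plates, medium with 10% serum, drug for 72 h over a 256-fold dose range (nine 2-fold or five 4-fold steps up to the top dose). Adherent lines were fixed and stained with the nucleic acid dye Syto60, suspension lines read with resazurin; signal relative to control wells, capped at 0 and 100%. One two-parameter sigmoid per drug and line, fitted in a mixed model over all curves with the slope shared within a line.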

Tubastatin A = compound: CN1CCc2c(c3ccccc3n2Cc2ccc(C(=O)NO)cc2)C1 [Tubastatin A]; conditions: top dose 20 µM
Protocol: as §1

XL-880 = compound: COc1cc2c(Oc3ccc(NC(=O)C4(C(=O)Nc5ccc(F)cc5)CC4)cc3F)ccnc2cc1OCCCN1CCOCC1 [XL-880]; conditions: top dose 5.12 µM; top dose inferred
Protocol: as §1

CI-1040 = compound: O=C(NOCC1CC1)c1ccc(F)c(F)c1Nc1ccc(I)cc1Cl [CI-1040]; conditions: top dose 10 µM; top dose inferred
Protocol: as §1

IPA-3 = compound: Oc1ccc2ccccc2c1SSc1c(O)ccc2ccccc12 [IPA-3]; conditions: top dose 32 µM; top dose inferred
Protocol: as §1

Temozolomide = compound: Cn1nnc2c(C(N)=O)ncn2c1=O [Temozolomide]; conditions: top dose 30 µM
Protocol: as §1

Cell Line	AUC (ZG-10)	IC50 (ZG-10)	AUC (Tubastatin A)	IC50 (Tubastatin A)	AUC (XL-880)	IC50 (XL-880)	AUC (CI-1040)	IC50 (CI-1040)	AUC (IPA-3)	IC50 (IPA-3)	AUC (Temozolomide)	IC50 (Temozolomide)
FADU (head and neck, adherent)	0.437	0.424 µM	0.987	> 20 µM	0.813	2.65 µM	0.77	3.66 µM	0.978	> 32 µM	–	–
OC-314 (ovary, adherent)	0.558	0.88 µM	0.989	> 20 µM	0.763	1.61 µM	0.952	> 10 µM	–	–	0.988	> 30 µM
OVCA420 (ovary, adherent)	0.968	> 10 µM	0.718	6.46 µM	0.745	2.09 µM	0.855	> 10 µM	–	–	0.927	> 30 µM
SK-MEL-5 (melanoma, adherent)	0.835	8.78 µM	0.977	> 20 µM	0.867	> 5.12 µM	0.557	0.924 µM	–	–	0.975	> 30 µM
RPMI-7951 (melanoma, adherent)	0.83	6 µM	0.9	> 20 µM	0.54	0.41 µM	0.795	4.49 µM	0.804	15.4 µM	–	–
C-4-I (cervix, adherent)	0.926	> 10 µM	0.986	> 20 µM	0.748	1.78 µM	0.812	5.91 µM	0.959	> 32 µM	–	–
JHOS-3 (ovary, adherent)	0.807	6.91 µM	0.981	> 20 µM	0.718	1.6 µM	0.834	9.18 µM	–	–	0.981	> 30 µM
SK-MG-1 (glioma, adherent)	0.576	1.01 µM	0.986	> 20 µM	0.704	1.21 µM	0.92	> 10 µM	–	–	0.981	> 30 µM
CAPAN-1 (pancreas, adherent)	0.896	> 10 µM	0.985	> 20 µM	0.737	1.66 µM	0.827	7.06 µM	0.973	> 32 µM	–	–
A2058 (melanoma, adherent)	0.744	2.83 µM	0.99	> 20 µM	0.784	1.92 µM	0.803	4.34 µM	0.736	8.64 µM	–	–
OV-7 (ovary, adherent)	0.77	5.94 µM	0.951	> 20 µM	0.541	0.437 µM	0.735	4.24 µM	–	–	0.919	> 30 µM
OVCA433 (ovary, adherent)	0.699	2.43 µM	0.985	> 20 µM	0.668	0.996 µM	0.795	5.22 µM	–	–	0.975	> 30 µM
SK-N-SH (neuroblastoma, adherent)	0.958	> 10 µM	0.935	> 20 µM	0.636	0.758 µM	0.881	> 10 µM	0.856	25.5 µM	–	–
RCC-JW (kidney, adherent)	0.663	1.79 µM	0.979	> 20 µM	0.685	1.07 µM	0.89	> 10 µM	–	–	0.984	> 30 µM
SNU-81 (large intestine, adherent)	0.636	1.69 µM	0.972	> 20 µM	0.874	> 5.12 µM	0.404	0.311 µM	–	–	0.962	> 30 µM
HuP-T4 (pancreas, adherent)	0.705	2.46 µM	0.874	> 20 µM	0.563	0.481 µM	0.568	0.971 µM	0.872	> 32 µM	–	–
QGP-1 (pancreas, adherent)	0.829	> 10 µM	0.848	> 20 µM	0.642	1.01 µM	0.932	> 10 µM	–	–	0.977	> 30 µM
RCC-JF (kidney, adherent)	0.694	2.37 µM	0.948	> 20 µM	0.638	0.813 µM	0.625	1.45 µM	–	–	0.94	> 30 µM
RCC-FG2 (kidney, adherent)	0.801	6.53 µM	0.975	> 20 µM	0.618	0.74 µM	0.867	> 10 µM	–	–	0.975	> 30 µM
EMC-BAC-1 (lung adenocarcinoma, adherent)	0.657	1.82 µM	0.942	> 20 µM	0.521	0.369 µM	0.855	9.74 µM	–	–	0.981	> 30 µM
KYSE-410 (oesophagus, adherent)	0.779	4.35 µM	0.979	> 20 µM	0.742	1.66 µM	0.667	1.88 µM	0.872	> 32 µM	–	–
KYAE-1 (oesophagus, suspension)	0.845	8.41 µM	0.944	> 20 µM	0.65	0.874 µM	0.804	5.63 µM	–	–	0.967	> 30 µM
NCI-H460 (large cell lung carcinoma, adherent)	0.985	> 10 µM	0.99	> 20 µM	–	–	0.648	1.54 µM	0.987	> 32 µM	–	–
OV-17R (ovary, adherent)	0.941	> 10 µM	0.903	> 20 µM	0.632	0.856 µM	0.952	> 10 µM	–	–	0.97	> 30 µM
D-423MG (glioma, adherent)	0.724	3.16 µM	0.981	> 20 µM	0.6	0.639 µM	0.705	2.72 µM	–	–	0.865	> 30 µM
UWB1.289 (ovary, adherent)	0.755	5.08 µM	0.949	> 20 µM	0.683	1.36 µM	0.91	> 10 µM	–	–	0.977	> 30 µM

From the supplement of paper PMC4967469
